Assay results as given in PubChem BioAssay AID504845 (National Center for Advancing Translational Sciences (NCATS), 2011).
About 150 (0.038%) of roughly 390,000 compounds were called active. This list was built around the results that the source calls inconclusive (neither active nor inactive); the mix of calls is not that of the screen. The call rests on the fitted dose curve; in most records, active means well fitted inhibition curve with a large enough effect; inconclusive means small, poorly fitted or top-dose-only effect; inactive means no such curve, though single readings can be large or run the other way. Potencies of inconclusive entries are doubtful fits and often do not repeat.

target: Regulator of G-protein signaling 4 (Homo sapiens) (UniProt P49798); assay: Inhibitors of Regulator of G Protein Signaling (RGS) 4: qHTS; conditions: Transcreener GDP fluorescence polarization, RGS4-accelerated GTP hydrolysis; series mostly up to 114 µM; activity change, negative = inhibition: at the top concentration; further: nearly all actives have a fitted effect of over 75% in size
Chain of UniProt P49798 (P49798 whole entry, looked up): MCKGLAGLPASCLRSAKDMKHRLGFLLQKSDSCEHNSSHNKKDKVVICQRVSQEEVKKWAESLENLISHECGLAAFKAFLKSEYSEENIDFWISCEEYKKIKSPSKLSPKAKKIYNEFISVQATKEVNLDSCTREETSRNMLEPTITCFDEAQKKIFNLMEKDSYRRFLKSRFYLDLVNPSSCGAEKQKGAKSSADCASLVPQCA
Procedure, shortened: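 MLSMR compounds (23 nl, pin-transferred) preincubated 10 min at room temperature with a 500nM (2x) first reagent, then RGS4 at 900nM (2x) plus Transcreener GDP mix added; fluorescence polarization (620/688 nm) read before and after 90 min at 30 °C.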
On the % scale 0 is the no-effect control and ±100 the full control effect; potency means the concentration at half of the fitted maximal effect; tags describe the fitted curve by direction and shape.

Compound	Potency	activity change, negative = inhibition
COCCn1c(SCCN2CCOCC2)nc2c1c(=O)[nH]c(=O)n2C	inconclusive: 35.5 µM [inhibitor, partial curve, poor fit]	
Cc1ccc(Sc2ncccc2N)cc1	inconclusive: 31.6 µM [inhibitor, partial curve, poor fit]	
N#C/C(=N\Nc1ccc([N+](=O)[O-])cc1)C(N)=S	inconclusive: 89.1 µM [inhibitor, partial curve, poor fit]	
O=C(c1ccc(-c2nnc(Nc3cccc(Cl)c3)c3ccccc23)cc1)N1C[C@H]2C[C@H](C1)c1cccc(=O)n1C2	inconclusive: 89.1 µM [inhibitor, partial curve, poor fit]	
CNC(=S)N(Cc1ccc(OC)cc1)Cc1cc2ccc(C)cc2[nH]c1=O	inconclusive: 50.1 µM [inhibitor, partial curve, poor fit]	
CCC(C)c1ccc(OCCCCN2CCOCC2)cc1 (stereo not drawn)		inactive: 16.6%
N#Cc1c(-c2ccc(F)cc2)cc(-c2ccccc2)nc1SCC(=O)NCC(=O)O	inconclusive: 35.5 µM [inhibitor, full curve, poor fit]	
CN(C)Cc1c(O)c(Cl)cc2c3c(c(=O)oc12)CCCC3		inactive: 3.41%
Cc1ccccc1Nc1cc2ccccc2c(=O)[nH]1	inconclusive: 50.1 µM [inhibitor, partial curve, poor fit]	
O=C(COc1cccc(NC(=O)c2cccc([N+](=O)[O-])c2)c1)c1ccc(F)cc1		inactive: -18.3%
O=S(=O)(CCSc1nc2ccccc2s1)c1nc2ccccc2s1		inactive: -50.7%
CC(C)CN1CCN(CC#Cc2ccccc2)CC1CCO (stereo not drawn)		inactive: -1%
O=C(CCc1ccc(O)c(O)c1)N/N=C/c1cc2c(cc1[N+](=O)[O-])OCO2	inconclusive: 100 µM [inhibitor, single point]	
COC(=O)CNC(c1ccccc1)c1cc(Br)ccc1NC(=O)c1ccccc1 (stereo not drawn)		inactive: -7.96%
O=C(CCN1C(=O)/C(=C/c2ccc3c(c2)OCO3)SC1=S)Nc1ccc(C(=O)O)cc1	inconclusive: 89.1 µM [inhibitor, single point]	
CCOc1ccc(Nc2cc(C)nc3nc(Cc4ccc(Cl)cc4)nn23)cc1	inconclusive: 20 µM [inhibitor, full curve, poor fit]	
COc1ccc(CCNC(=O)c2cc3c(s2)-c2ccccc2OC3)cc1OC	inconclusive: 44.7 µM [inhibitor, partial curve, poor fit]	
O=C1Nc2ccccc2Nc2ncccc21		inactive: 21.8%
COc1ccc(S(=O)(=O)c2c(O)c3ccc(C(=O)NCc4ccccc4)cc3[nH]c2=O)cc1		inactive: 13%
COc1ccccc1NC(=S)N1CCN(C(=O)c2ccco2)CC1	inconclusive: 79.4 µM [inhibitor, single point]	
COc1cc2nc(CC(C)C)n(NC(=O)c3ccccc3Br)c(=O)c2cc1OC		inactive: 18.4%
CC1CCC(NC(=O)C2(C)CCC(=O)N2Cc2cccnc2)CC1 (stereo not drawn)		inactive: 7.88%
CC1CCCC(C)N1c1ccc(S(=O)(=O)N2CCOCC2)cc1Cl (stereo not drawn)		inactive: -1.7%

Compound	Potency	activity change, negative = inhibition
CN1c2ccccc2C(O)=C(C(=S)Nc2ccc(Cl)cc2)S1(=O)=O	inconclusive: 44.7 µM [inhibitor, partial curve, poor fit]	
COc1ccc(/C=C2\Oc3cc(OCC(=O)N4CCC(C(=O)O)CC4)ccc3C2=O)c(OC)c1	inconclusive: 25.1 µM [inhibitor, full curve, poor fit]	
CC(C)(C)C(=O)NC(=S)Nc1sc2c(c1C#N)CCCCC2	inconclusive: 50.1 µM [inhibitor, partial curve, poor fit]	
Cn1c(=S)c2[nH]c(SCCN3CCCC3)nc2n(C)c1=O		inactive: -39.5%
O=C(Nc1ccccc1N1CCCCC1)c1ncoc1-c1ccc(F)cc1		inactive: 13.3%
CC(=O)Oc1ccc(N2C(=O)c3cccc4c([N+](=O)[O-])ccc(c34)C2=O)cc1		inactive: 0.729%
Cc1cc(C)n(-c2nnc(NC34CC5CC(CC(C5)C3)C4)nn2)n1	inconclusive: 50.1 µM [inhibitor, partial curve, poor fit]	
Cc1cc(NCCCN2CCOCC2)n2ncc(-c3ccc(Cl)cc3)c2n1		inactive: 12.5%
CCOC(=O)c1c(NC(=O)c2cc(CC(C)C)on2)sc(C(C)=O)c1C	inconclusive: 35.5 µM [inhibitor, full curve, poor fit]	
CC[C@@H](C)[C@@H](C(=O)Nc1ccc(C)cc1)N1Cc2ccccc2C1=O		inactive: -3.94%
CCC(C)Cn1c(O)cc2nn(-c3nc4ccccc4s3)c(=O)c-2c1C (stereo not drawn)	inconclusive: 50.1 µM [inhibitor, partial curve, poor fit]	
O=C(CC1SC(=O)N(c2ccccc2)C1=O)Nc1cccc2ccccc12 (stereo not drawn)	inconclusive: 17.8 µM [inhibitor, full curve, poor fit]	
CCN(CC)c1ccc(NC(=O)CCCCCN2C(=O)c3ccccc3C2=O)cc1	inconclusive: 79.4 µM [inhibitor, partial curve, poor fit]	
CCOc1ccc(-c2cc(-c3nc(-c4ccc(C)cc4)no3)[nH]n2)cc1		inactive: -38.7%
COc1ccc(CNC(=O)COC(=O)c2cccnc2Nc2cccc(C(F)(F)F)c2)cc1	inconclusive: 79.4 µM [inhibitor, single point]	
O=S(=O)(O)c1cc(O)c2cc(Nc3ccccc3)ccc2c1	inconclusive: 44.7 µM [inhibitor, partial curve, poor fit]	
Cc1cc(C(=O)c2cccs2)c(N)s1	inconclusive: 10 µM [inhibitor, full curve, poor fit]	
Clc1ccc(CN2CCN(c3ncccn3)CC2)c(Cl)c1		inactive: 12.9%
COc1ccc(N2CCc3c(C)nc4c(OC)cc(OC)cc4c32)cc1		inactive: 0.658%
CCCCn1c(NC(=O)c2ccccc2)c(C#N)c2nc3ccccc3nc21		inactive: -48.4%
COc1ccc(/C=C/C(=O)Nc2ccc(Cl)c(Cl)c2)cc1	inconclusive: 89.1 µM [inhibitor, single point]	
CC(C)N1CCc2[nH]c(=S)[nH]c(=O)c2C1	inconclusive: 50.1 µM [inhibitor, partial curve, poor fit]	
CNS(=O)(=O)c1cc(-c2nnc(Nc3cc(C)ccc3C)c3ccccc23)ccc1C		inactive: -3.03%

Compound	Potency	activity change, negative = inhibition
CCn1cc(C(=O)N2CC(C)CC(C)C2)c(=O)c2cc(S(=O)(=O)N(C)C)ccc21 (stereo not drawn)	inconclusive: 79.4 µM [inhibitor, single point]	
CCN(CC)c1ccc(/C=C2/SC(=O)N(C(C)C)C2=O)o1	inconclusive: 50.1 µM [inhibitor, partial curve, poor fit]	
O=C(/C=C/c1ccccc1Cl)NC1CCS(=O)(=O)C1 (stereo not drawn)	inconclusive: 17.8 µM [inhibitor, full curve, poor fit]	
CCOc1ccc(S(=O)(=O)NCCC(=O)N2CC(C)CC(C)C2)cc1 (stereo not drawn)		inactive: 1.1%
Cc1ccc(-c2cc3c(N4CCN(c5cc(C)ccc5C)CC4)nccn3n2)cc1	inconclusive: 89.1 µM [inhibitor, single point]	
CCN1CCN(c2cc(-c3ccccc3)nc3cc(-c4cccc(F)c4)nn23)CC1		inactive: 18.1%
Cn1c(=O)c2sccc2n2c(CCCC(=O)Nc3ccc(Oc4ccc(Cl)cc4)cc3)nnc12	inconclusive: 28.2 µM [inhibitor, full curve, poor fit]	
CCCCc1cc(-c2n[nH]c(=S)o2)c2ccccc2n1	inconclusive: 79.4 µM [inhibitor, partial curve, poor fit]	
CCCC(=O)Nc1ccc(Cl)c(NC(=O)CC)c1	inconclusive: 79.4 µM [inhibitor, partial curve, poor fit]	
O=C(O)CC1(CC(=O)Nc2nccs2)CCCCC1	inconclusive: 89.1 µM [inhibitor, single point]	
CCN(CC)S(=O)(=O)c1ccc(C)c(NC(=O)CNc2cccc(S(=O)(=O)N3CCOCC3)c2)c1		inactive: 8.45%
CO/N=C(\C(=O)N[C@@H]1C(=O)N2C(C(=O)O)=C(COC(C)=O)CS[C@H]12)c1csc(N)n1	inconclusive: 21.2 µM [inhibitor, partial curve]	
Cc1oc(-c2ccccc2)cc1C(=O)Nc1cccc2ccccc12	inconclusive: 79.4 µM [inhibitor, partial curve, poor fit]	
CCOc1ccc(NC(=O)Cn2nc(SC)c(S(=O)(=O)c3ccccc3)c2N)cc1		inactive: 20.8%
Cc1cc(OCc2n[nH]c(=S)n2-c2ccccc2)ccc1Cl	inconclusive: 10 µM [inhibitor, full curve, poor fit]	
CCC(C)C(=O)Nc1nnc(CCc2ccccc2)s1 (stereo not drawn)	inconclusive: 44.7 µM [inhibitor, partial curve, poor fit]	
S=c1[nH]nc(-c2ccncc2)n1/N=C/C(Cl)=C\c1ccccc1	inconclusive: 89.1 µM [inhibitor, partial curve, poor fit]	
O=C1C(=NO)CCc2ccccc21	inconclusive: 100 µM [inhibitor, partial curve, poor fit]	
Cc1sc2nc(SCC(N)=O)n(-c3ccccc3)c(=O)c2c1C	inconclusive: 79.4 µM [inhibitor, partial curve, poor fit]	
COc1ccc(-n2cccc2/C=C/[N+](=O)[O-])cc1	inconclusive: 39.8 µM [inhibitor, partial curve, poor fit]	
COc1ccccc1NC(=O)N1CCN(c2cccc(C(F)(F)F)c2)CC1	inconclusive: 100 µM [inhibitor, single point]	
CCOC(=O)CSc1nnc2c3ccccc3n(C)c2n1	inconclusive: 50.1 µM [inhibitor, partial curve, poor fit]	
